Laboratory results taken from PubChem BioAssay AID2147 (National Center for Advancing Translational Sciences (NCATS), 2009).
Among all 230,000 compounds or so, about 3,600 (1.6%) were called active. This list was built around the results that the source calls inconclusive (neither active nor inactive); the mix of calls is not that of the screen. Calls come from the whole dose curve; as a rule, active = well fitted inhibition curve with a large enough effect (not every such curve was filed as active); inconclusive = small, poorly fitted or top-dose-only effect, or another doubt; inactive = no such curve, though single readings can be large or run the other way. A potency beside an inconclusive call is a rough fit, not a confirmed value.

molecular target: Lysine-specific demethylase 4E (Homo sapiens) (UniProt B2RXH2); assay: qHTS Assay for Inhibitors of Human Jumonji Domain Containing 2E (JMJD2E); settings: JMJD2E catalytic domain, FDH-coupled NADH fluorescence (FDH is formaldehyde dehydrogenase); series mostly up to 57.1 µM; activity change, negative = inhibition: at the top concentration
Sequence of UniProt B2RXH2 (B2RXH2 whole entry, looked up, the tested form may be a part): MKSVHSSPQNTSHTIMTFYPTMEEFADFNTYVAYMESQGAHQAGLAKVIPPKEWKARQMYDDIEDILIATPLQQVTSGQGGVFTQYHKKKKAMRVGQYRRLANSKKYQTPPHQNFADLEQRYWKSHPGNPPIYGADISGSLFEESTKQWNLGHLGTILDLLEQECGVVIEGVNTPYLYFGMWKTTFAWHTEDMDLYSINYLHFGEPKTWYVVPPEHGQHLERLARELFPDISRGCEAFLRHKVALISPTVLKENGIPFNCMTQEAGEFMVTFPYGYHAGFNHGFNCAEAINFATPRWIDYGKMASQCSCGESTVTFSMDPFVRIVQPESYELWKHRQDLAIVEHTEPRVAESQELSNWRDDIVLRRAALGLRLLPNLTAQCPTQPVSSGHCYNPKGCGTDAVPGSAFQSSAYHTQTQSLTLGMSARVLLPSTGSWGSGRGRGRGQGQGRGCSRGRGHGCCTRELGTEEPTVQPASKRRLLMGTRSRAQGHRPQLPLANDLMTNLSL
Note: nearly all actives have a fitted effect of over 50% in size.
Potency is the fitted concentration of half-maximal effect; tags give direction and shape of the fitted curve.
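Throughout, for activity change, negative = inhibition: 0% = wells with enzyme and -100% = buffer wells without enzyme.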

`CN(C)S(=O)(=O)c1cccc(-c2cn3cccnc3n2)c1` was tested. Which Potency did it give?
Its Potency is inconclusive: 31.6 µM [inhibitor, partial curve].

`CCSc1nc(-c2cccnc2)ccc1C#N` was tested. Which Potency did it give?
Its Potency is inconclusive: 28.2 µM [inhibitor, partial curve].

How did the Potency turn out when `Cc1ccc(-c2nc3ccccc3nc2NN)cc1` was run?
Its Potency is inconclusive: 28.2 µM [inhibitor, partial curve].

With `O=C(CCc1ccccc1)Nc1ccc(NC(=O)c2ccco2)nc1` as the compound, how does the Potency read?
Its Potency is inconclusive: 39.8 µM [inhibitor, single point].

With `N#Cc1cc2c(nc1SCc1nc3ccccc3[nH]1)CCC2` as the compound, how does the Potency read?
The Potency was inconclusive: 12.6 µM [inhibitor, partial curve].

With `Cc1cc(C(=O)NCc2ccc(C(=O)O)o2)c(C)o1` as the compound, how does the “activity change, negative = inhibition” value read?
Its value is inactive: -7.23%.

How did the Potency turn out when `COCC1CCCCN1Cc1cn(-c2ccccc2)nc1-c1ccc2c(c1)OCO2` (centres undefined) was run?
The Potency was inconclusive: 35.5 µM [inhibitor, partial curve].

With `COc1ccc(/C=C/C(=O)OCC(=O)Nc2ccc(Cl)cn2)cc1` as the compound, how does the “activity change, negative = inhibition” value read?
Its value is inactive: -17.1%.

`CN(C)c1nc(-c2ccccn2)nnc1-c1ccccc1` was tested. Which Potency did it give?
Its Potency is inconclusive: 35.5 µM [inhibitor, single point].

How did the “activity change, negative = inhibition” value turn out when `Cc1ccc(C(=O)Cn2c(C(=O)/C=C/c3ccccc3)nc3ccccc32)cc1` was run?
Its value is inactive: 17.6%.

With `NC(=O)c1ccc2c(=O)n3c(-c4cccs4)csc3nc2c1` as the compound, how does the Potency read?
Its Potency is inconclusive: 25.1 µM [inhibitor, partial curve].

For `COC(=O)C(Oc1ccc2c(-c3ccc(OC)cc3)cc(=O)oc2c1)c1ccccc1` (centres undefined), which Potency is on record?
Its Potency is inconclusive: 39.8 µM [inhibitor, single point].

With `COc1ccc(NC(=O)C2CCCN(c3c4c(nc5ncnn35)CCC4)C2)cc1OC` (centres undefined) as the compound, how does the “activity change, negative = inhibition” value read?
The value was inactive: -1.75%.

For `Cc1ccc2cc3cc(C(=O)NCCCN4CCc5ccccc5C4)oc3nc2c1`, which Potency is on record?
The Potency was inconclusive: 28.2 µM [inhibitor, partial curve].

With `Cc1c(F)cccc1NS(=O)(=O)c1ccc2c(c1)c(=O)n(C)c(=O)n2C` as the compound, how does the Potency read?
Its Potency is inconclusive: 39.8 µM [inhibitor, single point].

For `COc1c(C)cccc1C(=O)Nc1cc(Cl)ccc1N1CCOCC1`, which Potency is on record?
The Potency was inconclusive: 39.8 µM [inhibitor, single point].

With `COc1ccccc1CC(=O)Nc1ccc2c(c1)C(=O)NC2=O` as the compound, how does the Potency read?
Its Potency is inconclusive: 39.8 µM [inhibitor, single point].

With `O=C(Oc1cccc(-c2cnc3ccccc3n2)c1)c1ccco1` as the compound, how does the Potency read?
Its Potency is inconclusive: 39.8 µM [inhibitor, single point].

How did the Potency turn out when `CCCCCC1=C2CNC(CC(C)C)(C(=O)OC)C=C2C(C)C1=O` (centres undefined) was run?
Its Potency is inconclusive: 25.1 µM [inhibitor, single point].

`O=C1NC2(CCCCC2)C(=O)N1Cc1cc(=O)n2ccsc2n1` was tested. Which Potency did it give?
The Potency was inconclusive: 28.2 µM [inhibitor, single point].

With `O=C(O)CCNS(=O)(=O)c1ccc(Oc2ccccc2)cc1` as the compound, how does the “activity change, negative = inhibition” value read?
The value was inactive: -0.374%.

`Cc1cccc(OCC(=O)NC(C)C(=O)N/N=C/c2c(OCc3ccccc3)ccc3ccccc23)c1` (centres undefined) was tested. Which Potency did it give?
Its Potency is inconclusive: 20 µM [inhibitor, partial curve].

How did the Potency turn out when `CCOC(=O)CSc1ncnc2c1cnn2-c1ccc(C)cc1` was run?
The Potency was inconclusive: 39.8 µM [inhibitor, single point].

For `c1cc(CNc2ccc(N3CCOCC3)cc2)ccn1`, which Potency is on record?
The Potency was inconclusive: 28.2 µM [inhibitor, single point].

Which Potency does the source give for `COC(=O)c1ccccc1NC(=O)/C=C/c1cc(OC)c(OC)c(OC)c1` here?
The Potency was inconclusive: 31.6 µM [inhibitor, partial curve].

With `CC(CN1CCOCC1)C(=O)c1ccccc1` (centres undefined) as the compound, how does the “activity change, negative = inhibition” value read?
The value was inactive: -3.35%.

With `COC(=O)NC(c1ccc2c(c1)OCO2)C(C(=O)OC)C(=O)OC` (centres undefined) as the compound, how does the “activity change, negative = inhibition” value read?
The value was inactive: 7.12%.

Which “activity change, negative = inhibition” value does the source give for `Cc1nc(C)c(C(=O)Nc2ncc([N+](=O)[O-])s2)o1` here?
Its value is inactive: -3.23%.

Which Potency does the source give for `COc1ccc(/C=C/C(=O)NC(=S)NCc2ccccc2)cc1OC` here?
The Potency was inconclusive: 31.6 µM [inhibitor, single point].

`CC(NC(=O)c1cc(=O)[nH]c2ccccc12)c1ccccc1` (centres undefined) was tested. Which Potency did it give?
Its Potency is inconclusive: 25.1 µM [inhibitor, partial curve].

With `COc1cccc(C2=NOC(C(=O)N3CCc4ccccc4C3)C2)c1` (centres undefined) as the compound, how does the “activity change, negative = inhibition” value read?
Its value is inactive: -9.41%.

For `CC(=O)C(Sc1ccc2nnc(-c3ccc(F)cc3)n2n1)C(C)=O`, which Potency is on record?
Its Potency is inconclusive: 39.8 µM [inhibitor, single point].

How did the “activity change, negative = inhibition” value turn out when `Cc1ccc(CN2CCN(Cc3c[nH]c4ccccc34)CC2CCO)o1` (centres undefined) was run?
Its value is inactive: 8.4%.

How did the Potency turn out when `Cn1cccc1/C=N/N1CCN(Cc2ccccc2)CC1` was run?
Its Potency is inconclusive: 35.5 µM [inhibitor, single point].

Which Potency does the source give for `Clc1cc(Br)ccc1OCCCNCc1ccccc1` here?
Its Potency is inconclusive: 39.8 µM [inhibitor, single point].

How did the Potency turn out when `CNC(=O)c1ccc(-c2sc3nc(N4CCOCC4)c4c(c3c2N)CC(C)(C)OC4)o1` was run?
Its Potency is inconclusive: 3.98 µM [inhibitor, partial curve].

How did the Potency turn out when `C=CCOc1c(CNn2nnnc2N)cccc1OC` was run?
The Potency was inconclusive: 35.5 µM [inhibitor, single point].

Which Potency does the source give for `N#Cc1c(-c2ccc(F)cc2)c2c([nH]c1=O)-c1ccccc1OC2` here?
The Potency was inconclusive: 28.2 µM [inhibitor, partial curve].

For `N#C/C(=C/Nc1ccccc1)c1ccsc1`, which “activity change, negative = inhibition” value is on record?
Its value is inactive: -25.5%.

With `COC(=O)c1c(NC(=O)CN2CCN(C(=O)c3ccco3)CC2)c2cc(C)ccc2n1C` as the compound, how does the Potency read?
The Potency was inconclusive: 39.8 µM [inhibitor, single point].

`COCCNc1ccnc2c(Cl)cccc12` was tested. Which Potency did it give?
Its Potency is inconclusive: 31.6 µM [inhibitor, single point].

With `CN(C)S(=O)(=O)Oc1ccsc1C(=O)Nc1ccc(Cl)c(Cl)c1` as the compound, how does the Potency read?
Its Potency is inconclusive: 39.8 µM [inhibitor, single point].

`CCOc1ccc(CN(C)CC(=O)Nc2cccc(S(=O)(=O)N(C)c3ccccc3)c2)cc1` was tested. Which Potency did it give?
Its Potency is inconclusive: 25.1 µM [inhibitor, single point].

Which Potency does the source give for `Cc1cc(C)cc(NC(=O)C2CCN(c3cnccn3)CC2)c1` here?
The Potency was inconclusive: 22.4 µM [inhibitor, single point].

`Nc1ccc(C(=O)N/N=C2\CCCc3c2[nH]c2ccccc32)cc1` was tested. Which Potency did it give?
The Potency was inconclusive: 25.1 µM [inhibitor, partial curve].

With `O=C1N/C(=C/c2ccc(N3CCCC3)cc2)C(=O)N1c1ccccc1` as the compound, how does the “activity change, negative = inhibition” value read?
The value was inactive: -4.99%.

`O=C1NS(=O)(=O)c2ccccc21` was tested. Which Potency did it give?
Its Potency is inconclusive: 35.5 µM [inhibitor, single point].

Which Potency does the source give for `COc1ccc(/C=N/NC(=O)c2cc(-c3ccccc3OC(C)C)nc3ccccc23)cc1CN1CCOCC1` here?
The Potency was inconclusive: 35.5 µM [inhibitor, single point].

`Cc1cc(C)c(C#N)c(N2CCN(CCOc3ccc(Cl)cc3)CC2)n1` was tested. Which Potency did it give?
Its Potency is inconclusive: 35.5 µM [inhibitor, single point].

`CCOC(=O)c1ccc(NC(=O)CC2C(=O)N(c3ccc(F)cc3)C(=O)N2CCC(C)C)cc1` (centres undefined) was tested. Which “activity change, negative = inhibition” value did it give?
Its value is inactive: -0.284%.

How did the “activity change, negative = inhibition” value turn out when `COC(=O)c1ccc2c(=O)n(Cc3ccco3)c(SCC(=O)Nc3ccc(C)c(Cl)c3)nc2c1` was run?
Its value is inactive: -16%.

`COc1cc2c(cc1OC)CN(CC(=O)Nc1ccc(C)cc1)CC2` was tested. Which “activity change, negative = inhibition” value did it give?
Its value is inactive: -4.29%.

`O=c1[nH]c(CSc2ncnc3sccc23)nc2cc(C(F)(F)F)ccc12` was tested. Which Potency did it give?
The Potency was inconclusive: 8.91 µM [inhibitor, full curve].

`Cc1cccc(C)c1Nc1c(-c2ccccn2)nc2ccccn12` was tested. Which “activity change, negative = inhibition” value did it give?
The value was inactive: -5.55%.

With `COc1ccc(NS(=O)(=O)c2ccc(NC(=O)c3ccc(CN4CCOCC4)cc3)cc2)cc1` as the compound, how does the Potency read?
Its Potency is inconclusive: 28.2 µM [inhibitor, single point].

Which Potency does the source give for `O=C(Nc1cc(Cl)cc(Cl)c1)C(NCCO)c1ccccc1` (centres undefined) here?
Its Potency is inconclusive: 25.1 µM [inhibitor, single point].

How did the Potency turn out when `COc1ccc(OC)c(-c2cc(C(=O)Nc3cccc(Cl)c3)no2)c1` was run?
Its Potency is inconclusive: 22.4 µM [inhibitor, partial curve].

With `CC(=O)NC1=NC(=O)/C(=C/c2cc(C)n(-c3ccc(NC(C)=O)cc3)c2C)S1` as the compound, how does the Potency read?
Its Potency is inconclusive: 39.8 µM [inhibitor, single point].

With `CC(C)Sc1nnc(NC(=O)C2CC2)s1` as the compound, how does the “activity change, negative = inhibition” value read?
The value was inactive: -3.65%.

`CCCCC(=O)N1C/C=C\C(c2ccc(OC)cc2)N(Cc2ccc(F)cc2)C(=O)[C@H]1Cc1ccccc1` (some centres undefined) was tested. Which Potency did it give?
The Potency was inconclusive: 39.8 µM [inhibitor, single point].

For `COc1ccc(C(=O)CNc2ccc3ccccc3c2)cc1`, which Potency is on record?
The Potency was inconclusive: 22.4 µM [inhibitor, partial curve].

`CCN(CC)CCCNC(=O)c1cc2c(=O)n(C)c3ccccc3c2n1C` was tested. Which Potency did it give?
The Potency was inconclusive: 25.1 µM [inhibitor, partial curve].

How did the Potency turn out when `Cc1nn(-c2ccccc2)c(Cl)c1/C=C1/C(=N)N2N=C(C(C)C)SC2=NC1=O` was run?
Its Potency is inconclusive: 7.08 µM [inhibitor, single point].

With `CCNC(=O)Nc1ccc(-n2nc(C)c(C(=O)OCC)c2C)nc1` as the compound, how does the Potency read?
Its Potency is inconclusive: 39.8 µM [inhibitor, single point].

How did the “activity change, negative = inhibition” value turn out when `Cc1ccc(S(=O)(=O)N(CC(=O)N2CCC(C(N)=O)CC2)c2cccc(C(F)(F)F)c2)cc1` was run?
The value was inactive: -0.657%.

`CCOc1c2ccc(C(=O)NCc3ccc(C)cc3)cc2nn1CCOC` was tested. Which Potency did it give?
The Potency was inconclusive: 31.6 µM [inhibitor, partial curve].

With `CCOc1ccc(N(CC(=O)Nc2ccccc2C)S(=O)(=O)c2c(C)noc2C)cc1` as the compound, how does the “activity change, negative = inhibition” value read?
Its value is inactive: 0.959%.

With `COc1cccc(/C=N/NC(=O)c2ccccc2N(Cc2ccccc2)S(=O)(=O)c2ccccc2)c1OC` as the compound, how does the Potency read?
Its Potency is inconclusive: 35.5 µM [inhibitor, single point].

Which Potency does the source give for `CCn1c(SCC(=O)N(C)C2CCS(=O)(=O)C2)nnc1-c1ccccc1` (centres undefined) here?
Its Potency is inconclusive: 28.2 µM [inhibitor, single point].
